Data from paper PMC12820563, “FoxP3 forms a head-to-head dimer in vivo and stabilizes its multimerization on adjacent microsatellites”.
This is one part of the list.

What follows are sequences tested against T1, MBP-FoxP1dN (Mus musculus, UniProt P58462 326-579) (assay: PD-seq (MBP pull-down with sequencing); 20 mM Tris-HCl pH 7.5, 100 mM NaCl, 1.5 mM MgCl2, 0.4 uM protein, 0.1 uM dsDNA library, 30 min, room temperature, amylose pull-down; high values mean tight binding). Conditions: protein: recombinant; tags: His6-MBP; chain copies: 2; dsDNA, one strand shown.
T1 sequence: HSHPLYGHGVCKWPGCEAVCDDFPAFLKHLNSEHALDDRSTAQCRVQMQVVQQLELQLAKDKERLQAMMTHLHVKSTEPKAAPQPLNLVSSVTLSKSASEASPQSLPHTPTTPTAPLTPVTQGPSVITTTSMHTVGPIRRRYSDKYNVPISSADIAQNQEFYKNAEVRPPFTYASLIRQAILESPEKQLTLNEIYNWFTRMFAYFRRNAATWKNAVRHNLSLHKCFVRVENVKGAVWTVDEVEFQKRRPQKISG
Outline: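 Binding is reads-per-million enrichment of pull-down over input, with replicates pooled. It comes from 30 min room-temperature incubation in Tris pH 7.5 buffer with NaCl and MgCl2 of 0.4 µM His6-MBP-tagged, N-terminally truncated mouse FoxP3 or FoxP1 fragment from E. coli with 0.1 µM Klenow-filled degenerate double-stranded DNA library, followed by amylose resin capture, three washes and Illumina sequencing of the released DNA.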

| Sequence | binding signal |
| --- | --- |
| GATGATTGTTCTCCCAGCTGATGAATTGAACGCATCGAGTAAACAAATTTTCCTAATCTTTCTGTTCAAGCGCCATCTAC | 1.14 RPM ratio (pull-down/input) |
| GATGATTGTTCTCCCAGCTGATGAATTGTCCATTTCGAGTAAACAAATTTTCCTAATCTTTCTGTTCAAGCGCCATCTAC | 1.05 RPM ratio (pull-down/input) |
| GATGATTGTTCTCCCAGCTGATGAATTCCGGCCGTCGAGTAAACAAATTTTCCTAATCTTTCTGTTCAAGCGCCATCTAC | 0.798 RPM ratio (pull-down/input) |
| GATGATTGTTCTCCCAGCTGATGAATTATGGCCTTCGAGTAAACAAATTTTCCTAATCTTTCTGTTCAAGCGCCATCTAC | 1.03 RPM ratio (pull-down/input) |
| GATGATTGTTCTCCCAGCTGATGAATTGTGCAGCTCGAGTAAACAAATTTTCCTAATCTTTCTGTTCAAGCGCCATCTAC | 0.932 RPM ratio (pull-down/input) |
| GATGATTGTTCTCCCAGCTGATGAATTTGGCTAATCGAGTAAACAAATTTTCCTAATCTTTCTGTTCAAGCGCCATCTAC | 0.962 RPM ratio (pull-down/input) |
| GATGATTGTTCTCCCAGCTGATGAATTGTATCTATCGAGTAAACAAATTTTCCTAATCTTTCTGTTCAAGCGCCATCTAC | 1.41 RPM ratio (pull-down/input) |
| GATGATTGTTCTCCCAGCTGATGAATTCGCTGATTCGAGTAAACAAATTTTCCTAATCTTTCTGTTCAAGCGCCATCTAC | 0.903 RPM ratio (pull-down/input) |
| GATGATTGTTCTCCCAGCTGATGAATTAAGCACATCGAGTAAACAAATTTTCCTAATCTTTCTGTTCAAGCGCCATCTAC | 1.15 RPM ratio (pull-down/input) |
| GATGATTGTTCTCCCAGCTGATGAATTATCCCTGTCGAGTAAACAAATTTTCCTAATCTTTCTGTTCAAGCGCCATCTAC | 0.907 RPM ratio (pull-down/input) |
| GATGATTGTTCTCCCAGCTGATGAATTTGCCGAATCGAGTAAACAAATTTTCCTAATCTTTCTGTTCAAGCGCCATCTAC | 0.887 RPM ratio (pull-down/input) |
| GATGATTGTTCTCCCAGCTGATGAATTAGGGCACTCGAGTAAACAAATTTTCCTAATCTTTCTGTTCAAGCGCCATCTAC | 0.9 RPM ratio (pull-down/input) |
| GATGATTGTTCTCCCAGCTGATGAATTTCAATACTCGAGTAAACAAATTTTCCTAATCTTTCTGTTCAAGCGCCATCTAC | 0.865 RPM ratio (pull-down/input) |
| GATGATTGTTCTCCCAGCTGATGAATTGTCTCAATCGAGTAAACAAATTTTCCTAATCTTTCTGTTCAAGCGCCATCTAC | 1.15 RPM ratio (pull-down/input) |
| GATGATTGTTCTCCCAGCTGATGAATTTGCGATGTCGAGTAAACAAATTTTCCTAATCTTTCTGTTCAAGCGCCATCTAC | 1.01 RPM ratio (pull-down/input) |
| GATGATTGTTCTCCCAGCTGATGAATTGTCCATCTCGAGTAAACAAATTTTCCTAATCTTTCTGTTCAAGCGCCATCTAC | 0.951 RPM ratio (pull-down/input) |
| GATGATTGTTCTCCCAGCTGATGAATTTTATAGCTCGAGTAAACAAATTTTCCTAATCTTTCTGTTCAAGCGCCATCTAC | 0.946 RPM ratio (pull-down/input) |
| GATGATTGTTCTCCCAGCTGATGAATTAAGTTCGTCGAGTAAACAAATTTTCCTAATCTTTCTGTTCAAGCGCCATCTAC | 0.901 RPM ratio (pull-down/input) |
| GATGATTGTTCTCCCAGCTGATGAATTATCGTCCTCGAGTAAACAAATTTTCCTAATCTTTCTGTTCAAGCGCCATCTAC | 0.977 RPM ratio (pull-down/input) |
| GATGATTGTTCTCCCAGCTGATGAATTCGCTCTCTCGAGTAAACAAATTTTCCTAATCTTTCTGTTCAAGCGCCATCTAC | 0.814 RPM ratio (pull-down/input) |
| GATGATTGTTCTCCCAGCTGATGAATTGCCAATGTCGAGTAAACAAATTTTCCTAATCTTTCTGTTCAAGCGCCATCTAC | 0.943 RPM ratio (pull-down/input) |

| Sequence | binding signal |
| --- | --- |
| GATGATTGTTCTCCCAGCTGATGAATTGTATGGGTCGAGTAAACAAATTTTCCTAATCTTTCTGTTCAAGCGCCATCTAC | 0.969 RPM ratio (pull-down/input) |
| GATGATTGTTCTCCCAGCTGATGAATTCTGCGGATCGAGTAAACAAATTTTCCTAATCTTTCTGTTCAAGCGCCATCTAC | 0.85 RPM ratio (pull-down/input) |
| GATGATTGTTCTCCCAGCTGATGAATTAGCTAAGTCGAGTAAACAAATTTTCCTAATCTTTCTGTTCAAGCGCCATCTAC | 0.909 RPM ratio (pull-down/input) |
| GATGATTGTTCTCCCAGCTGATGAATTAGATGGTTCGAGTAAACAAATTTTCCTAATCTTTCTGTTCAAGCGCCATCTAC | 0.928 RPM ratio (pull-down/input) |
| GATGATTGTTCTCCCAGCTGATGAATTGCTCTTTTCGAGTAAACAAATTTTCCTAATCTTTCTGTTCAAGCGCCATCTAC | 1.2 RPM ratio (pull-down/input) |
| GATGATTGTTCTCCCAGCTGATGAATTCCTAAGGTCGAGTAAACAAATTTTCCTAATCTTTCTGTTCAAGCGCCATCTAC | 0.703 RPM ratio (pull-down/input) |
| GATGATTGTTCTCCCAGCTGATGAATTACTGATGTCGAGTAAACAAATTTTCCTAATCTTTCTGTTCAAGCGCCATCTAC | 1.37 RPM ratio (pull-down/input) |
| GATGATTGTTCTCCCAGCTGATGAATTAAGATGATCGAGTAAACAAATTTTCCTAATCTTTCTGTTCAAGCGCCATCTAC | 0.992 RPM ratio (pull-down/input) |
| GATGATTGTTCTCCCAGCTGATGAATTCTGATCGTCGAGTAAACAAATTTTCCTAATCTTTCTGTTCAAGCGCCATCTAC | 0.813 RPM ratio (pull-down/input) |
| GATGATTGTTCTCCCAGCTGATGAATTAAGAGCATCGAGTAAACAAATTTTCCTAATCTTTCTGTTCAAGCGCCATCTAC | 1.07 RPM ratio (pull-down/input) |
| GATGATTGTTCTCCCAGCTGATGAATTTAGTGGGTCGAGTAAACAAATTTTCCTAATCTTTCTGTTCAAGCGCCATCTAC | 0.851 RPM ratio (pull-down/input) |
| GATGATTGTTCTCCCAGCTGATGAATTGTTTCAATCGAGTAAACAAATTTTCCTAATCTTTCTGTTCAAGCGCCATCTAC | 1.25 RPM ratio (pull-down/input) |
| GATGATTGTTCTCCCAGCTGATGAATTCAGACATTCGAGTAAACAAATTTTCCTAATCTTTCTGTTCAAGCGCCATCTAC | 0.89 RPM ratio (pull-down/input) |
| GATGATTGTTCTCCCAGCTGATGAATTCCCGGAGTCGAGTAAACAAATTTTCCTAATCTTTCTGTTCAAGCGCCATCTAC | 0.755 RPM ratio (pull-down/input) |
| GATGATTGTTCTCCCAGCTGATGAATTTCATCTTTCGAGTAAACAAATTTTCCTAATCTTTCTGTTCAAGCGCCATCTAC | 0.887 RPM ratio (pull-down/input) |
| GATGATTGTTCTCCCAGCTGATGAATTAATTGCCTCGAGTAAACAAATTTTCCTAATCTTTCTGTTCAAGCGCCATCTAC | 1 RPM ratio (pull-down/input) |
| GATGATTGTTCTCCCAGCTGATGAATTACTAGCATCGAGTAAACAAATTTTCCTAATCTTTCTGTTCAAGCGCCATCTAC | 1.23 RPM ratio (pull-down/input) |
| GATGATTGTTCTCCCAGCTGATGAATTTGTGCGGTCGAGTAAACAAATTTTCCTAATCTTTCTGTTCAAGCGCCATCTAC | 0.941 RPM ratio (pull-down/input) |
| GATGATTGTTCTCCCAGCTGATGAATTAGCTGCCTCGAGTAAACAAATTTTCCTAATCTTTCTGTTCAAGCGCCATCTAC | 0.874 RPM ratio (pull-down/input) |
| GATGATTGTTCTCCCAGCTGATGAATTTCGAGATTCGAGTAAACAAATTTTCCTAATCTTTCTGTTCAAGCGCCATCTAC | 0.796 RPM ratio (pull-down/input) |
| GATGATTGTTCTCCCAGCTGATGAATTAGCTGGATCGAGTAAACAAATTTTCCTAATCTTTCTGTTCAAGCGCCATCTAC | 0.767 RPM ratio (pull-down/input) |

| Sequence | binding signal |
| --- | --- |
| GATGATTGTTCTCCCAGCTGATGAATTCGACCACTCGAGTAAACAAATTTTCCTAATCTTTCTGTTCAAGCGCCATCTAC | 0.809 RPM ratio (pull-down/input) |
| GATGATTGTTCTCCCAGCTGATGAATTGATTACCTCGAGTAAACAAATTTTCCTAATCTTTCTGTTCAAGCGCCATCTAC | 1.39 RPM ratio (pull-down/input) |
| GATGATTGTTCTCCCAGCTGATGAATTACACGTTTCGAGTAAACAAATTTTCCTAATCTTTCTGTTCAAGCGCCATCTAC | 1.24 RPM ratio (pull-down/input) |
| GATGATTGTTCTCCCAGCTGATGAATTATCCTGCTCGAGTAAACAAATTTTCCTAATCTTTCTGTTCAAGCGCCATCTAC | 0.904 RPM ratio (pull-down/input) |
| GATGATTGTTCTCCCAGCTGATGAATTGTTTTCTTCGAGTAAACAAATTTTCCTAATCTTTCTGTTCAAGCGCCATCTAC | 2.03 RPM ratio (pull-down/input) |
| GATGATTGTTCTCCCAGCTGATGAATTCGCGATTTCGAGTAAACAAATTTTCCTAATCTTTCTGTTCAAGCGCCATCTAC | 0.941 RPM ratio (pull-down/input) |
| GATGATTGTTCTCCCAGCTGATGAATTGGCTGGCTCGAGTAAACAAATTTTCCTAATCTTTCTGTTCAAGCGCCATCTAC | 0.797 RPM ratio (pull-down/input) |
| GATGATTGTTCTCCCAGCTGATGAATTGGCAAGGTCGAGTAAACAAATTTTCCTAATCTTTCTGTTCAAGCGCCATCTAC | 0.794 RPM ratio (pull-down/input) |
| GATGATTGTTCTCCCAGCTGATGAATTTCGGAGCTCGAGTAAACAAATTTTCCTAATCTTTCTGTTCAAGCGCCATCTAC | 0.743 RPM ratio (pull-down/input) |
| GATGATTGTTCTCCCAGCTGATGAATTCTTGTCGTCGAGTAAACAAATTTTCCTAATCTTTCTGTTCAAGCGCCATCTAC | 1.18 RPM ratio (pull-down/input) |
| GATGATTGTTCTCCCAGCTGATGAATTCTAGCTATCGAGTAAACAAATTTTCCTAATCTTTCTGTTCAAGCGCCATCTAC | 1.02 RPM ratio (pull-down/input) |
| GATGATTGTTCTCCCAGCTGATGAATTTGTAAATTCGAGTAAACAAATTTTCCTAATCTTTCTGTTCAAGCGCCATCTAC | 1.28 RPM ratio (pull-down/input) |
| GATGATTGTTCTCCCAGCTGATGAATTGTAGTCTTCGAGTAAACAAATTTTCCTAATCTTTCTGTTCAAGCGCCATCTAC | 1.11 RPM ratio (pull-down/input) |
| GATGATTGTTCTCCCAGCTGATGAATTCTCCTATTCGAGTAAACAAATTTTCCTAATCTTTCTGTTCAAGCGCCATCTAC | 0.943 RPM ratio (pull-down/input) |
| GATGATTGTTCTCCCAGCTGATGAATTGGGCAAATCGAGTAAACAAATTTTCCTAATCTTTCTGTTCAAGCGCCATCTAC | 0.975 RPM ratio (pull-down/input) |
| GATGATTGTTCTCCCAGCTGATGAATTTCACTTATCGAGTAAACAAATTTTCCTAATCTTTCTGTTCAAGCGCCATCTAC | 0.993 RPM ratio (pull-down/input) |
| GATGATTGTTCTCCCAGCTGATGAATTCACAGATTCGAGTAAACAAATTTTCCTAATCTTTCTGTTCAAGCGCCATCTAC | 0.901 RPM ratio (pull-down/input) |
| GATGATTGTTCTCCCAGCTGATGAATTTAAATACTCGAGTAAACAAATTTTCCTAATCTTTCTGTTCAAGCGCCATCTAC | 0.992 RPM ratio (pull-down/input) |
| GATGATTGTTCTCCCAGCTGATGAATTTAGTTCATCGAGTAAACAAATTTTCCTAATCTTTCTGTTCAAGCGCCATCTAC | 0.956 RPM ratio (pull-down/input) |
| GATGATTGTTCTCCCAGCTGATGAATTTATATGCTCGAGTAAACAAATTTTCCTAATCTTTCTGTTCAAGCGCCATCTAC | 1.1 RPM ratio (pull-down/input) |
| GATGATTGTTCTCCCAGCTGATGAATTAGCTCGTTCGAGTAAACAAATTTTCCTAATCTTTCTGTTCAAGCGCCATCTAC | 0.856 RPM ratio (pull-down/input) |
